Test results: the supplement of paper PMC8728848
This is one part of the list.

Assays:
Test in all cases: glycan array binding signal (z-score within array); higher = stronger binding
Details in all cases: glycan notation: IUPAC condensed, linker removed
[1] = target: GlcNAc(b1-2)Gal(b1-3)GalNAc
Method in brief: (§1)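 Columns mapping to the same glycan were averaged after glycan names were converted to IUPAC-condensed notation. The data come from 3228 arrays in the Consortium for Functional Glycomics database, limited to those with an available protein sequence. Binding is reported as a within-array Z-score averaged across arrays of one protein sequence and across linkers.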

[2] = target: GlcNAc(b1-2)Man(a1-3)[GlcNAc(b1-2)Man(a1-6)]Man(b1-4)GlcNAc(b1-4)GlcNAc
Method in brief: as §1

[3] = target: GlcNAc(b1-2)Man(a1-3)[GlcNAc(b1-2)Man(a1-6)]Man(b1-4)GlcNAc(b1-4)[Fuc(a1-6)]GlcNAc
Method in brief: as §1

[4] = target: GlcNAc(b1-2)Man(a1-3)[GlcNAc(b1-4)][GlcNAc(b1-2)Man(a1-6)]Man(b1-4)GlcNAc(b1-4)GlcNAc
Method in brief: as §1

[5] = target: GlcNAc(b1-2)Man(a1-3)[GlcNAc(b1-4)][GlcNAc(b1-2)Man(a1-6)]Man(b1-4)GlcNAc(b1-4)[Fuc(a1-6)]GlcNAc
Method in brief: as §1

[6] = target: GlcNAc(b1-2)[GlcNAc(b1-4)]Man(a1-3)[GlcNAc(b1-2)Man(a1-6)]Man(b1-4)GlcNAc(b1-4)GlcNAc
Method in brief: as §1

[7] = target: GlcNAc(b1-2)[GlcNAc(b1-4)]Man(a1-3)[GlcNAc(b1-4)][GlcNAc(b1-2)Man(a1-6)]Man(b1-4)GlcNAc(b1-4)GlcNAc
Method in brief: as §1

[8] = target: GlcNAc(b1-2)[GlcNAc(b1-4)]Man(a1-3)[GlcNAc(b1-4)][GlcNAc(b1-2)[GlcNAc(b1-6)]Man(a1-6)]Man(b1-4)GlcNAc(b1-4)GlcNAc
Method in brief: as §1

[9] = target: GlcNAc(b1-2)[GlcNAc(b1-4)]Man(a1-3)[GlcNAc(b1-4)][GlcNAc(b1-2)[GlcNAc(b1-6)]Man(a1-6)]Man(b1-4)GlcNAc(b1-4)[Fuc(a1-6)]GlcNAc
Method in brief: as §1

[10] = target: GlcNAc(b1-2)[GlcNAc(b1-6)]Man(a1-6)[GlcNAc(b1-2)Man(a1-3)]Man(b1-4)GlcNAc(b1-4)GlcNAc
Method in brief: as §1

[11] = target: GlcNAc(b1-2)[GlcNAc(b1-6)]Man(a1-6)[GlcNAc(b1-2)Man(a1-3)]Man(b1-4)GlcNAc(b1-4)[Fuc(a1-6)]GlcNAc
Method in brief: as §1

[12] = target: GlcNAc(b1-2)[GlcNAc(b1-6)]Man(a1-6)[GlcNAc(b1-4)][GlcNAc(b1-2)Man(a1-3)]Man(b1-4)GlcNAc(b1-4)GlcNAc
Method in brief: as §1

GlcNAc(b1-3)Fuc = target: GlcNAc(b1-3)Fuc
Method in brief: as §1

GlcNAc(b1-3)Gal = target: GlcNAc(b1-3)Gal
Method in brief: as §1

[13] = target: GlcNAc(b1-3)Gal(b1-3)GalNAc
Method in brief: as §1

GlcNAc(b1-3)Gal(b1-4)Glc = target: GlcNAc(b1-3)Gal(b1-4)Glc
Method in brief: as §1

[14] = target: GlcNAc(b1-3)Gal(b1-4)GlcNAc
Method in brief: as §1

[15] = target: GlcNAc(b1-3)Gal(b1-4)GlcNAc(b1-2)Man(a1-3)[GlcNAc(b1-3)Gal(b1-4)GlcNAc(b1-2)Man(a1-6)]Man(b1-4)GlcNAc(b1-4)GlcNAc
Method in brief: as §1

[16] = target: GlcNAc(b1-3)Gal(b1-4)GlcNAc(b1-2)Man(a1-3)[GlcNAc(b1-3)Gal(b1-4)GlcNAc(b1-2)Man(a1-6)]Man(b1-4)GlcNAc(b1-4)[Fuc(a1-6)]GlcNAc
Method in brief: as §1

[17] = target: GlcNAc(b1-3)Gal(b1-4)GlcNAc(b1-2)[GlcNAc(b1-3)Gal(b1-4)GlcNAc(b1-6)]Man(a1-6)[GlcNAc(b1-3)Gal(b1-4)GlcNAc(b1-2)Man(a1-3)]Man(b1-4)GlcNAc(b1-4)GlcNAc
Method in brief: as §1

[18] = target: GlcNAc(b1-3)Gal(b1-4)GlcNAc(b1-3)Gal(b1-4)GlcNAc
Method in brief: as §1

[19] = target: GlcNAc(b1-3)Gal(b1-4)GlcNAc(b1-3)Gal(b1-4)GlcNAc(b1-2)Man(a1-3)[GlcNAc(b1-3)Gal(b1-4)GlcNAc(b1-3)Gal(b1-4)GlcNAc(b1-2)Man(a1-6)]Man(b1-4)GlcNAc(b1-4)GlcNAc
Method in brief: as §1

[20] = target: GlcNAc(b1-3)Gal(b1-4)GlcNAc(b1-3)Gal(b1-4)GlcNAc(b1-2)Man(a1-3)[GlcNAc(b1-3)Gal(b1-4)GlcNAc(b1-3)Gal(b1-4)GlcNAc(b1-2)Man(a1-6)]Man(b1-4)GlcNAc(b1-4)[Fuc(a1-6)]GlcNAc
Method in brief: as §1

[21] = target: GlcNAc(b1-3)Gal(b1-4)GlcNAc(b1-3)Gal(b1-4)GlcNAc(b1-2)[GlcNAc(b1-3)Gal(b1-4)GlcNAc(b1-3)Gal(b1-4)GlcNAc(b1-6)]Man(a1-6)[GlcNAc(b1-3)Gal(b1-4)GlcNAc(b1-3)Gal(b1-4)GlcNAc(b1-2)Man(a1-3)]Man(b1-4)GlcNAc(b1-4)[Fuc(a1-6)]GlcNAc
Method in brief: as §1

[22] = target: GlcNAc(b1-3)Gal(b1-4)GlcNAc(b1-3)Gal(b1-4)GlcNAc(b1-3)Gal(b1-4)GlcNAc(b1-2)Man(a1-3)[GlcNAc(b1-3)Gal(b1-4)GlcNAc(b1-3)Gal(b1-4)GlcNAc(b1-3)Gal(b1-4)GlcNAc(b1-2)Man(a1-6)]Man(b1-4)GlcNAc(b1-4)GlcNAc
Method in brief: as §1

[23] = target: GlcNAc(b1-3)Gal(b1-4)GlcNAc(b1-3)Gal(b1-4)GlcNAc(b1-3)Gal(b1-4)GlcNAc(b1-2)Man(a1-3)[GlcNAc(b1-3)Gal(b1-4)GlcNAc(b1-3)Gal(b1-4)GlcNAc(b1-3)Gal(b1-4)GlcNAc(b1-2)Man(a1-6)]Man(b1-4)GlcNAc(b1-4)[Fuc(a1-6)]GlcNAc
Method in brief: as §1

[24] = target: GlcNAc(b1-3)Gal(b1-4)GlcNAc(b1-3)Gal(b1-4)GlcNAc(b1-3)Gal(b1-4)GlcNAc(b1-2)[GlcNAc(b1-3)Gal(b1-4)GlcNAc(b1-3)Gal(b1-4)GlcNAc(b1-3)Gal(b1-4)GlcNAc(b1-6)]Man(a1-6)[GlcNAc(b1-3)Gal(b1-4)GlcNAc(b1-3)Gal(b1-4)GlcNAc(b1-3)Gal(b1-4)GlcNAc(b1-2)Man(a1-3)]Man(b1-4)GlcNAc(b1-4)[Fuc(a1-6)]GlcNAc
Method in brief: as §1

[25] = target: GlcNAc(b1-3)Gal(b1-4)GlcNAc(b1-3)Gal(b1-4)GlcNAc(b1-3)Gal(b1-4)GlcNAc(b1-3)Gal(b1-4)GlcNAc(b1-2)Man(a1-3)[GlcNAc(b1-3)Gal(b1-4)GlcNAc(b1-3)Gal(b1-4)GlcNAc(b1-3)Gal(b1-4)GlcNAc(b1-3)Gal(b1-4)GlcNAc(b1-2)Man(a1-6)]Man(b1-4)GlcNAc(b1-4)GlcNAc
Method in brief: as §1

[26] = target: GlcNAc(b1-3)Gal(b1-4)GlcNAc(b1-3)Gal(b1-4)GlcNAc(b1-3)Gal(b1-4)GlcNAc(b1-3)Gal(b1-4)GlcNAc(b1-2)Man(a1-3)[GlcNAc(b1-3)Gal(b1-4)GlcNAc(b1-3)Gal(b1-4)GlcNAc(b1-3)Gal(b1-4)GlcNAc(b1-3)Gal(b1-4)GlcNAc(b1-2)Man(a1-6)]Man(b1-4)GlcNAc(b1-4)[Fuc(a1-6)]GlcNAc
Method in brief: as §1

[27] = target: GlcNAc(b1-3)Gal(b1-4)GlcNAc(b1-3)Gal(b1-4)GlcNAc(b1-3)Gal(b1-4)GlcNAc(b1-3)Gal(b1-4)GlcNAc(b1-2)[GlcNAc(b1-3)Gal(b1-4)GlcNAc(b1-3)Gal(b1-4)GlcNAc(b1-3)Gal(b1-4)GlcNAc(b1-3)Gal(b1-4)GlcNAc(b1-6)]Man(a1-6)[GlcNAc(b1-3)Gal(b1-4)GlcNAc(b1-3)Gal(b1-4)GlcNAc(b1-3)Gal(b1-4)GlcNAc(b1-3)Gal(b1-4)GlcNAc(b1-2)Man(a1-3)]Man(b1-4)GlcNAc(b1-4)[Fuc(a1-6)]GlcNAc
Method in brief: as §1

B1: PX9896A-bth-573-26-573 (Bacteroides thetaiotaomicron) (protein)
chain: ETNNLKTKEDMYKYFGTSKSMLTHVYSYMPQGYQLFATSGGIFTEDRYSMRDCASDDGEFGAYADNIQNTNNGNWSPIKTYDDSWTLYRGIRAANSFIAEIAQVDFTRYEHDGQYTNWMKQLKYFPYEARVLRAHYFFELARRYGDIAMPLEVLTEEEANTIGKTPFSEVISFIVSECDDAANNLPDSYVNEPGAEIGRVTKGFAMAVKSKALLYAASKLHNPSMDTELWKKSAKAAIDIINTGLYSLDPQESANNLDSKEVVLMRINGDDSDFEMFNLPLRMTAGTRTSSLIPYSNYPSQNLVDAFETVNGYKVTLENTGWVCEDPAFDPQSPYENRDKRFYRAILANGMSFKDYTIETFKGGADDGIVSQGGSPTGYFLRKYIQEATSFEPGKEAVSKHHWVIYRYAETLLTYAESMVNAFNDVNYTDETYKYSALWAINEVRKNADMPLIPSMGKDEFMERLYNEWRVEFAFEDHRFWDVRRWKIADTTQRELYGVKIEKQADGTFNFYKNLYETRNWRDCMYLYPIPQSELYKNTNLNPQNTGW
- glycan array binding signal (z-score) [1]: 0.16
- glycan array binding signal (z-score) [2]: -0.563
- glycan array binding signal (z-score) [3]: 0.84
- glycan array binding signal (z-score) [4]: -0.644
- glycan array binding signal (z-score) [5]: 0.138
- glycan array binding signal (z-score) [6]: 0.234
- glycan array binding signal (z-score) [7]: -0.753
- glycan array binding signal (z-score) [8]: -0.791
- glycan array binding signal (z-score) [9]: -0.141
- glycan array binding signal (z-score) [10]: 0.211
- glycan array binding signal (z-score) [11]: -0.582
- glycan array binding signal (z-score) [12]: 0.138
- glycan array binding signal (z-score) (GlcNAc(b1-3)Fuc): 0.149
- glycan array binding signal (z-score) (GlcNAc(b1-3)Gal): 0.42
- glycan array binding signal (z-score) [13]: -0.077
- glycan array binding signal (z-score) (GlcNAc(b1-3)Gal(b1-4)Glc): 0.621
- glycan array binding signal (z-score) [14]: 0.141
- glycan array binding signal (z-score) [15]: 0.09
- glycan array binding signal (z-score) [16]: 1.57
- glycan array binding signal (z-score) [17]: 0.497
- glycan array binding signal (z-score) [18]: -0.759
- glycan array binding signal (z-score) [19]: 0.753
- glycan array binding signal (z-score) [20]: 0.309
- glycan array binding signal (z-score) [21]: 0.724
- glycan array binding signal (z-score) [22]: 0.176
- glycan array binding signal (z-score) [23]: 1.82
- glycan array binding signal (z-score) [24]: 0.579
- glycan array binding signal (z-score) [25]: 0.69
- glycan array binding signal (z-score) [26]: 0.252
- glycan array binding signal (z-score) [27]: 0.825
